Source: PubChem BioAssay AID624173 (National Center for Advancing Translational Sciences (NCATS), 2012)
The whole screen tested about 410,000 compounds, of which about 490 (0.12%) were called active. Inconclusive results, whose numbers are uncertain, are shown with a selection of clear calls. Calls follow the shape of the dose curve; as a rule, active = well fitted inhibition curve with a large enough effect; inconclusive = small, poorly fitted or top-dose-only effect; inactive = flat fitted curve, though single readings scatter. Where the call is inconclusive, the potency comes from a doubtful curve fit.
% is scaled to controls: 0 for no effect and ±100 for the full control effect; potency is read from the fitted curve at half-maximal effect; tags tell the direction and shape of the fitted curve.
Also: nearly all actives have a fitted effect of over 50% in size.

These molecules were tested against pyruvate kinase (Trypanosoma brucei) (UniProt Q57TT1) (assay: qHTS of Trypanosoma Brucei Inhibitors). Settings: TbPYK enzyme, Kinase-Glo Plus ATP luminescence, 45 min; series mostly up to 76.8 µM.
In short: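 ADP (130 uM final) triggers the TbPYK reaction after compound addition; incubation is 45 min at room temperature. Kinase-Glo Plus is then added and luminescence imaged. Normalized data are fitted to concentration-effect curves.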
`CCOc1ccccc1NC(=S)NC1CC2CCC1C2` (configuration not stated) was tested, and the Potency was “inactive”.
For `C/C(=N\N1CCCCC1c1cccnc1)c1c(O)n(C2CCCCC2)c(=S)[nH]c1=O` (configuration not stated), the Potency was “inactive”.
For `CC(NC(=O)c1ccc(Cn2cc([N+](=O)[O-])cn2)cc1)c1ccccc1` (configuration not stated), the Potency was inconclusive: 50.1 µM [inhibitor, single point].
In the case of `COc1ccc(CC(=O)NCc2n[nH]c(=S)n2C)cc1`, the Potency is reported as inconclusive: 28.2 µM [inhibitor, partial curve, poor fit].
With `CCC1=C/C(=C/c2sc3ccccc3[n+]2CC)CC(C)(C)C1` the Potency was inconclusive: 8.91 µM [inhibitor, partial curve].
In the case of `Cc1ccc(-c2nn3c(C)nnc3c3ccccc23)cc1S(=O)(=O)NCC(C)O` (configuration not stated), the Potency is reported as “inactive”.
For `CN(CC(=O)Nc1n[nH]c(=S)s1)S(=O)(=O)c1cccc2cccnc12`, the Potency was inconclusive: 15.8 µM [inhibitor, partial curve, poor fit].
`CC(C)(C)c1ccc(O)c(N=Cc2cc3c(cc2[N+](=O)[O-])OCO3)c1` was tested, and the Potency was inconclusive: 28.2 µM [inhibitor, partial curve].
`CCCCOc1ccc(C(C)NC(=O)CN2C(=O)CSc3ccc(S(=O)(=O)N4CCOCC4)cc32)cc1` (configuration not stated) was tested, and the Potency was “inactive”.
In the case of `O=S1(=O)c2ccccc2N(Cc2cccc(F)c2)c2ccccc21`, the Potency is reported as “inactive”.
For `Cc1ccsc1C(=O)N1CCCC(CO)(Cc2ccccc2F)C1` (configuration not stated), the Potency was “inactive”.
With `CCOc1ccc2nc(NC(=O)/C=C/c3ccc4c(c3)OCO4)sc2c1` the Potency was inconclusive: 50.1 µM [inhibitor, single point].
With `Oc1ccc(/C=N/n2c(C3CCCCC3)n[nH]c2=S)c(O)c1` the Potency was inconclusive: 3.55 µM [inhibitor, partial curve, poor fit].
For `O=c1c2cc3c(cc2nc2sc(Nc4cccc([N+](=O)[O-])c4)nn12)OCO3`, the activity, negative = inhibition was inactive: -16.1% [at 15.4 µM].
`Cc1ccc(C(=O)N/N=C/c2nc3ccccc3n2C)cc1` was tested, and the Potency was inconclusive: 28.2 µM [inhibitor, single point].
`COC(=O)c1cc(Br)c(=O)n(CCN2CCCCC2)c1` was tested, and the Potency was “inactive”.
With `COc1ccc(-c2nnc(C3CCN(S(=O)(=O)c4cccc(Cl)c4)CC3)o2)cc1` the Potency was inconclusive: 17.8 µM [inhibitor, partial curve, poor fit].
`CC(C(=O)Nc1cc([N+](=O)[O-])ccc1Cl)N1CCN(c2ccc(O)cc2)CC1` (configuration not stated) was tested, and the Potency was inconclusive: 17.8 µM [inhibitor, partial curve].
For `CCOc1cc(NC(=O)CCl)c(OCC)cc1NC(=O)CCl`, the Potency was “inactive”.
In the case of `CCc1ccccc1NC(=O)c1cn(C)c(=O)c2ccccc12`, the Potency is reported as inconclusive: 1.58 µM [inhibitor, full curve, poor fit].
In the case of `CCCS(=O)(=O)c1cnc(C2COc3ccccc3O2)nc1N` (configuration not stated), the Potency is reported as inconclusive: 35.5 µM [inhibitor, partial curve, poor fit].
With `COc1ccccc1OCCn1c(SCC(=O)O)nc2ccccc21` the Potency was inconclusive: 39.8 µM [inhibitor, single point].
For `Cc1cc(C)c2c(c1)c(C)cc1nnc(SCC(=O)c3ccccc3)n12`, the Potency was inconclusive: 20 µM [inhibitor, partial curve, poor fit].
For `Cc1cccc(C(=O)Nc2ccc3c(c2)ncn3C)c1`, the Potency was “inactive”.
In the case of `CCCn1cnc2c(=S)nc(N)[nH]c21`, the Potency is reported as inconclusive: 15.8 µM [inhibitor, partial curve, poor fit].
In the case of `Cc1cc(C)c(S(=O)(=O)Nc2nnc(C)s2)c(C)c1`, the Potency is reported as inconclusive: 39.8 µM [inhibitor, single point].
With `Cc1ccc(NC(=O)C2(C)CCN2C(=O)Cc2cc(F)ccc2F)cc1` (configuration not stated) the Potency was “inactive”.
With `COc1ccc(NC(=O)Cn2c(=O)oc3cc(S(=O)(=O)N4CCCCCC4)ccc32)cc1OC` the Potency was “inactive”.
`COc1ccc(-n2cc(-c3ccccc3)[nH]c2=S)cc1` was tested, and the Potency was inconclusive: 2.24 µM [inhibitor, full curve, poor fit].
With `COC(=O)c1cc(Nc2nc3ccccc3nc2NS(=O)(=O)c2ccc(C)cc2)ccc1Cl` the Potency was “inactive”.
With `Cc1sc2ccccc2[n+]1CC(=O)c1ccccc1` the Potency was inconclusive: 14.1 µM [inhibitor, partial curve].
`CCN(C(=S)Nc1cccc(C)c1)c1ccccc1` was tested, and the Potency was inconclusive: 50.1 µM [inhibitor, single point].
For `COc1ccc(Cl)cc1NC(=O)c1c(NCc2ccc(C)o2)sc2c1CCC(C)C2` (configuration not stated), the Potency was inconclusive: 35.5 µM [inhibitor, single point].
With `CC(=O)Nc1cccc(C(=O)OCC(=O)NC(=O)Cc2ccccc2)c1` the Potency was “inactive”.
With `Cc1ccc(-c2nc3ccccc3[nH]2)s1` the Potency was inconclusive: 22.4 µM [inhibitor, partial curve, poor fit].
In the case of `COCCNC(=O)c1ccccc1-c1nc(-c2ccccc2OC)no1`, the Potency is reported as “inactive”.
In the case of `CCCCNC(=S)N(C)N=C1CCC(c2ccccc2)CC1` (configuration not stated), the Potency is reported as inconclusive: 8.91 µM [inhibitor, partial curve, poor fit].
In the case of `Nc1ccc(S(=O)(=O)c2cc(O)c3ccccc3c2O)cc1`, the Potency is reported as active: 11.2 µM.
`O=C(CCN1CCN(C(=O)c2ccccc2)CC1)c1ccc(Br)cc1` was tested, and the Potency was “inactive”.
In the case of `S=c1[nH]nc(-c2cccs2)n1Cc1ccccc1`, the Potency is reported as inconclusive: 3.98 µM [inhibitor, full curve].
For `CNc1n[nH]c(=S)s1`, the Potency was inconclusive: 31.6 µM [inhibitor, single point].
With `Clc1ccc(C[n+]2csc3ccccc32)cc1` the Potency was inconclusive: 28.2 µM [inhibitor, partial curve].
For `COc1cc(O)c(C(=O)O)c(-c2cc(O)c(O)cc2C)c1`, the Potency was active: 10 µM.
In the case of `COc1cccc(Nc2nc3cc(C)ccc3nc2NS(=O)(=O)c2ccc(Cl)cc2)c1`, the Potency is reported as “inactive”.
With `OC(CNc1nc(C(F)(F)F)nc2ccccc12)c1ccccc1` (configuration not stated) the Potency was “inactive”.
With `Cc1ccc(C(=O)O/N=C(\N)c2ccccn2)cc1` the Potency was inconclusive: 7.94 µM [inhibitor, partial curve].
In the case of `C=CCn1c(CSCc2ccc(F)cc2)n[nH]c1=S`, the Potency is reported as inconclusive: 15.8 µM [inhibitor, partial curve, poor fit].
